# Test results from the BET-seq Pho4 binding data (Le et al. 2018).
# Some of the results follow. The energies were worked out here from pooled read counts, against the library average; single values are noisy.
# Molecular target: T1, Pho4 (S. cerevisiae) (UniProt P07270)
# T1 sequence: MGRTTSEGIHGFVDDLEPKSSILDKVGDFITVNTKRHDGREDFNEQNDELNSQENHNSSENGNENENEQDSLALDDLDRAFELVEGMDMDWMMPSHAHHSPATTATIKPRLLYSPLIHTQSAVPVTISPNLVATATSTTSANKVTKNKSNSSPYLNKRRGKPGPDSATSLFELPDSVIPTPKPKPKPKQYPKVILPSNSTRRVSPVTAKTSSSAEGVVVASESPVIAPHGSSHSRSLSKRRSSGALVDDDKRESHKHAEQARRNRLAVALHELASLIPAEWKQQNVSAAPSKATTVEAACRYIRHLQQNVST
# Assay: relative binding free energy (BET-seq); higher = weaker binding
# Conditions: reference: library average
row,Sequence,relative binding free energy
1,TGTTGCACGTGAAGAG,0.15 kcal/mol
2,TGTCGCACGTGATTAG,-0.02 kcal/mol
3,ACATACACGTGGTGGT,0.08 kcal/mol
4,AACAGCACGTGGGGTG,-0.16 kcal/mol
5,AATGACACGTGCGGGA,-0.05 kcal/mol
6,GCGTGCACGTGGTTTT,0 kcal/mol
7,GCTTGCACGTGATGGG,-0.08 kcal/mol
8,TTGGACACGTGAATAA,0.45 kcal/mol
9,CGCTGCACGTGGGGTT,-0.22 kcal/mol
10,AGTGGCACGTGAGCTA,0.1 kcal/mol
11,AGGGGCACGTGGAGAA,-0.1 kcal/mol
12,TTTTTCACGTGTTTTC,0.31 kcal/mol
13,TTGTGCACGTGATTGC,0.15 kcal/mol
14,GAGATCACGTGGTTAG,0.06 kcal/mol
15,TTGGCCACGTGGTTGG,-0.02 kcal/mol
16,ATGTGCACGTGAGACG,0.12 kcal/mol
17,GGGGTCACGTGGCTCG,0.15 kcal/mol
18,CTTGGCACGTGTTAGA,-0.18 kcal/mol
19,AATCTCACGTGTGGTA,0.22 kcal/mol
20,GGGGGCACGTGACTTG,0.1 kcal/mol
21,GGTTGCACGTGTCGTC,0.21 kcal/mol
22,TGCGTCACGTGTGGTG,0.12 kcal/mol
23,TATGTCACGTGCGGAT,0.1 kcal/mol
24,CTGGACACGTGGGTGG,-0.14 kcal/mol
25,GCTGGCACGTGGGAGA,-0.1 kcal/mol
26,CGTCACACGTGTTTGG,0 kcal/mol

row,Sequence,relative binding free energy
1,CGATACACGTGGTGTT,0.02 kcal/mol
2,AGAAGCACGTGGTAGG,-0.27 kcal/mol
3,CTTGACACGTGGGTGA,-0.11 kcal/mol
4,TGACTCACGTGTGTGG,0.23 kcal/mol
5,GTGTGCACGTGACATG,0.07 kcal/mol
6,CTCGGCACGTGTGAGG,0.09 kcal/mol
7,AAGTACACGTGGGAGT,0.05 kcal/mol
8,TGTGGCACGTGGTGTT,-0.14 kcal/mol
9,ATATTCACGTGAGGTG,0.32 kcal/mol
10,GGGGACACGTGGTTAA,-0.07 kcal/mol
11,GTTATCACGTGCATGT,0.11 kcal/mol
12,GTCGCCACGTGGGGCT,-0.13 kcal/mol
13,AGGGGCACGTGGTATG,-0.28 kcal/mol
14,TTGTTCACGTGTAATA,0.24 kcal/mol
15,GATTTCACGTGAGTAG,0.46 kcal/mol
16,TGCGGCACGTGTGAGG,-0.02 kcal/mol
17,ACGAGCACGTGTGGGC,-0.09 kcal/mol
18,ATTAGCACGTGATCGG,-0.09 kcal/mol
19,TCGCTCACGTGTGTGG,0.07 kcal/mol
20,TTGTACACGTGAAGCT,0.31 kcal/mol
21,TGTTACACGTGGTGTC,0.13 kcal/mol
22,GCCTTCACGTGAGGGG,0.46 kcal/mol
23,GAAGTCACGTGGAAGT,0.28 kcal/mol
24,GTGCGCACGTGTATTT,-0.1 kcal/mol
25,GTTTGCACGTGAGCTT,0.32 kcal/mol
26,ATGGACACGTGTAGCT,0.07 kcal/mol

row,Sequence,relative binding free energy
1,ATGGTCACGTGTTTCG,0.17 kcal/mol
2,TTTATCACGTGTATCT,0.19 kcal/mol
3,CTGCACACGTGTGGGG,0.07 kcal/mol
4,GGTGTCACGTGCTCGG,0.02 kcal/mol
5,CGACACACGTGTGGGT,0.05 kcal/mol
6,TGTAACACGTGGGCCG,-0.07 kcal/mol
7,CGAGGCACGTGGGGAG,-0.24 kcal/mol
8,GGTAGCACGTGGGAGC,-0.07 kcal/mol
9,TGTTGCACGTGAGTCG,0.24 kcal/mol
10,AAGGTCACGTGGAATG,0.14 kcal/mol
11,GTGTACACGTGGTGGA,-0.04 kcal/mol
12,GACGCCACGTGGAGGG,-0.08 kcal/mol
13,GCTATCACGTGGGTGC,0.14 kcal/mol
14,ACGGGCACGTGTCGGA,-0.03 kcal/mol
15,GTCATCACGTGTTTCG,0.26 kcal/mol
16,TTGGTCACGTGGTCGA,0.06 kcal/mol
17,AGAGACACGTGGGGTT,-0.05 kcal/mol
18,ATCTGCACGTGAATGT,0.4 kcal/mol
19,GTCTTCACGTGGCTTT,0.22 kcal/mol
20,TGTTTCACGTGAACTG,0.41 kcal/mol
21,TGCATCACGTGAGGGG,0.22 kcal/mol
22,AGGTACACGTGTGTGT,0.11 kcal/mol
23,TGGTACACGTGAGAGA,0.38 kcal/mol
24,TTGTGCACGTGAACAG,0.19 kcal/mol
25,AGGGTCACGTGTAAGC,0.08 kcal/mol
26,GAGTTCACGTGTGGTC,0.49 kcal/mol

row,Sequence,relative binding free energy
1,ATAAGCACGTGGTGTA,-0.22 kcal/mol
2,GTTGCCACGTGTCGGT,-0.06 kcal/mol
3,ATATGCACGTGCCTGG,0.03 kcal/mol
4,CGGCGCACGTGGGCAG,-0.15 kcal/mol
5,CGTGGCACGTGGGCTT,-0.27 kcal/mol
6,AACATCACGTGGTTGG,0.08 kcal/mol
7,AGTGGCACGTGTGTGT,-0.11 kcal/mol
8,TGGAACACGTGGACGG,0.07 kcal/mol
9,TCTAGCACGTGGTGTG,-0.31 kcal/mol
10,GTAGTCACGTGAGATG,0.33 kcal/mol
11,TTGAGCACGTGGAACG,0.05 kcal/mol
12,ATTATCACGTGTATGG,0.06 kcal/mol
13,GGGTGCACGTGTGATG,0.18 kcal/mol
14,CGACGCACGTGTGGGG,-0.17 kcal/mol
15,TCATACACGTGAGGGT,0.47 kcal/mol
16,GTCTACACGTGTGTAT,0.14 kcal/mol
17,TTTGGCACGTGGACTG,-0.21 kcal/mol
18,GGTCTCACGTGTATAT,0.22 kcal/mol
19,GGGCTCACGTGGGGGA,-0.01 kcal/mol
20,GTGTACACGTGGCTGT,-0.15 kcal/mol
21,CGGGGCACGTGGGTAA,-0.12 kcal/mol
22,CGGTACACGTGGTTTA,-0.1 kcal/mol
23,CGATACACGTGGTTTG,-0.09 kcal/mol
24,ATTTGCACGTGATAAT,0.27 kcal/mol
25,ATTGTCACGTGCTGAG,0.09 kcal/mol
26,GGGAACACGTGTGGGC,0.13 kcal/mol

row,Sequence,relative binding free energy
1,ATATACACGTGTAAGT,0.14 kcal/mol
2,AGTACCACGTGAGGTT,0.17 kcal/mol
3,AGATACACGTGTTAAG,0.19 kcal/mol
4,GGGATCACGTGGAGCG,0.08 kcal/mol
5,GGGCCCACGTGTGGTT,0.14 kcal/mol
6,ATAAGCACGTGTAAAG,0.15 kcal/mol
7,ATCGTCACGTGTTTTA,0 kcal/mol
8,ATAGTCACGTGAAGAG,0.19 kcal/mol
9,ATAGGCACGTGTACGG,-0.14 kcal/mol
10,TAAGGCACGTGCTGGG,-0.2 kcal/mol
11,CGGTGCACGTGAGAAT,0.34 kcal/mol
12,GATAGCACGTGTTTGT,0.03 kcal/mol
13,CAGGGCACGTGGGGTG,-0.27 kcal/mol
14,ATGCTCACGTGTTGAT,0.16 kcal/mol
15,TTACGCACGTGGGGTC,-0.3 kcal/mol
16,AGCATCACGTGGAGGG,0.08 kcal/mol
17,GTGGTCACGTGGGACA,-0.01 kcal/mol
18,TATGACACGTGTGACG,0.13 kcal/mol
19,GATTTCACGTGTGTAG,0.38 kcal/mol
20,TAAAGCACGTGGTATA,-0.13 kcal/mol
21,GTTAGCACGTGGGTAA,-0.15 kcal/mol
22,ATATTCACGTGGTGGC,0.12 kcal/mol
23,TTAGGCACGTGTAGTG,0.02 kcal/mol
24,CTTATCACGTGGGATG,0.11 kcal/mol
25,GATGTCACGTGTGATG,0.22 kcal/mol
26,GAGCGCACGTGTGCGT,0.08 kcal/mol

row,Sequence,relative binding free energy
1,AGTGACACGTGTGTAG,-0.08 kcal/mol
2,GTCCGCACGTGTTGGT,0.09 kcal/mol
3,AAATGCACGTGAGGGT,0.12 kcal/mol
4,GAGGGCACGTGGAGGC,-0.06 kcal/mol
5,CGGTGCACGTGTAAAG,0.02 kcal/mol
6,CAAGTCACGTGTGAGT,0.16 kcal/mol
7,TGGCGCACGTGGAAAG,0.01 kcal/mol
8,TGTTTCACGTGTGTTA,0.28 kcal/mol
9,TGACGCACGTGGTATA,-0.15 kcal/mol
10,TTGTGCACGTGTGTAC,0.08 kcal/mol
11,TATCTCACGTGGTGGC,0.17 kcal/mol
12,GCTTGCACGTGTGGCT,0.02 kcal/mol
13,AGGATCACGTGTAGAA,0.32 kcal/mol
14,TTAGACACGTGATGTT,0.1 kcal/mol
15,AGAAACACGTGGGGTT,-0.03 kcal/mol
16,TCTAACACGTGGGGGG,-0.12 kcal/mol
17,TGATTCACGTGTGGGC,0.37 kcal/mol
18,TAGGGCACGTGAATGC,0.12 kcal/mol
19,AGAGACACGTGAATGG,0.35 kcal/mol
20,CGTGTCACGTGGTGAG,-0.07 kcal/mol
21,AGGCGCACGTGGAGGA,-0.13 kcal/mol
22,TTTTGCACGTGTTGTG,0.06 kcal/mol
23,TTAGGCACGTGGCATA,-0.15 kcal/mol
24,GTGTTCACGTGGGTTA,0.34 kcal/mol
25,TTGAACACGTGTTATC,0.19 kcal/mol
26,AAGATCACGTGTGGAG,0.04 kcal/mol

row,Sequence,relative binding free energy
1,TTAGTCACGTGTGGGG,0.2 kcal/mol
2,GTTGTCACGTGACGGT,0.24 kcal/mol
3,TTGTGCACGTGGGCTT,-0.15 kcal/mol
4,CGGGGCACGTGTGTTA,0.01 kcal/mol
5,CATATCACGTGGTTAA,0.12 kcal/mol
6,GTCGACACGTGGGTAG,-0.11 kcal/mol
7,TGAGCCACGTGTGTTA,0.07 kcal/mol
8,CTGTACACGTGGAGTG,-0.06 kcal/mol
9,TAGTTCACGTGAGTGA,0.24 kcal/mol
10,GGGGGCACGTGGGCGC,-0.16 kcal/mol
11,TGTTGCACGTGGTACG,-0.2 kcal/mol
12,TATCGCACGTGTAGTA,0.06 kcal/mol
13,AGGCGCACGTGAGTGC,0.16 kcal/mol
14,GACGGCACGTGATGGG,0.11 kcal/mol
15,TAATGCACGTGCTGGT,-0.07 kcal/mol
16,TGTACCACGTGGGGGC,-0.22 kcal/mol
17,TGGTTCACGTGAGGCG,0.41 kcal/mol
18,GTATTCACGTGTTTGT,0.18 kcal/mol
19,ACACTCACGTGGGGGG,0.05 kcal/mol
20,GTTTACACGTGTATGG,0.16 kcal/mol
21,TTTTGCACGTGGGCAG,-0.22 kcal/mol
22,TAACTCACGTGTTATT,0.18 kcal/mol
23,GGTGTCACGTGTTAGC,0.24 kcal/mol
24,ACAGTCACGTGTAGGG,0.06 kcal/mol
25,AGGTGCACGTGAATGG,0.17 kcal/mol
26,TAGTACACGTGTCGGA,0.22 kcal/mol

row,Sequence,relative binding free energy
1,GGGTTCACGTGGTCCG,0.31 kcal/mol
2,TGAGGCACGTGGTTGT,-0.13 kcal/mol
3,AATTGCACGTGGATGG,0.05 kcal/mol
4,CGGAACACGTGGTGGT,-0.07 kcal/mol
5,ATAGGCACGTGTTCTT,-0.22 kcal/mol
6,GATGTCACGTGCAGTT,0.12 kcal/mol
7,TTGATCACGTGAGAAG,0.32 kcal/mol
8,GGTATCACGTGCTGGG,0.07 kcal/mol
9,GGATGCACGTGTTGGC,-0.1 kcal/mol
10,TATAGCACGTGGTCTG,-0.21 kcal/mol
11,GGAAGCACGTGGGGAA,-0.28 kcal/mol
12,TTGGACACGTGCTGTG,-0.03 kcal/mol
13,TTTTGCACGTGGTTCC,0.01 kcal/mol
14,CTGGACACGTGGTGAG,0.01 kcal/mol
15,AGTAGCACGTGGGAGT,-0.13 kcal/mol
16,TTAGGCACGTGGGCAG,-0.17 kcal/mol
17,ATTTTCACGTGAATAT,0.31 kcal/mol
18,TTCCTCACGTGTAGTG,0.26 kcal/mol
19,GTTTCCACGTGTGCTT,0.29 kcal/mol
20,GGTGCCACGTGTTCGT,-0.13 kcal/mol
21,GGACACACGTGAGTGT,0.28 kcal/mol
22,AGTAACACGTGAGTGC,0.26 kcal/mol
23,ATTGTCACGTGAGGGT,0.29 kcal/mol
24,TTTAGCACGTGCGCTG,-0.04 kcal/mol
25,TCGTTCACGTGGAGTA,0.13 kcal/mol
26,TGGGCCACGTGACTGG,0 kcal/mol

row,Sequence,relative binding free energy
1,GGGGCCACGTGCTTGA,-0.02 kcal/mol
2,GTCAGCACGTGTCGGT,0.17 kcal/mol
3,TTCATCACGTGTGAAG,0.19 kcal/mol
4,TAAGGCACGTGCTTGT,-0.15 kcal/mol
5,TCTAGCACGTGTTTTG,0.01 kcal/mol
6,TGTATCACGTGTGTCT,0.07 kcal/mol
7,GGTCACACGTGGCGGG,0.08 kcal/mol
8,TTACGCACGTGTCGTG,-0.11 kcal/mol
9,AGGGGCACGTGAGTAC,0.04 kcal/mol
10,GGTAGCACGTGAGAAA,0.49 kcal/mol
11,ATATTCACGTGATGTG,0.27 kcal/mol
12,TTGGTCACGTGTGATC,0.03 kcal/mol
13,GTAGACACGTGTGTAG,0 kcal/mol
14,GTGATCACGTGTGATT,0.21 kcal/mol
15,TGATGCACGTGTATTT,-0.04 kcal/mol
16,TAGGTCACGTGACTTT,0.19 kcal/mol
17,TGGATCACGTGCTGGC,0.19 kcal/mol
18,ATTTTCACGTGGTTGG,0.31 kcal/mol
19,CGTATCACGTGTGGTA,0.18 kcal/mol
20,TATGACACGTGATGTG,0.13 kcal/mol
21,GTGGTCACGTGTCGTT,0.09 kcal/mol
22,CTTGCCACGTGAGTTT,0.35 kcal/mol
